T1: human OX40 expressed on the surface of cells (CHO cells overexpressing human OX40) (human, UniProt P43489 29-277)
T1 construct: whole, on cells; also called CHO-OX40 cells; CHO cells overexpressing OX40
T1 sequence (looked up): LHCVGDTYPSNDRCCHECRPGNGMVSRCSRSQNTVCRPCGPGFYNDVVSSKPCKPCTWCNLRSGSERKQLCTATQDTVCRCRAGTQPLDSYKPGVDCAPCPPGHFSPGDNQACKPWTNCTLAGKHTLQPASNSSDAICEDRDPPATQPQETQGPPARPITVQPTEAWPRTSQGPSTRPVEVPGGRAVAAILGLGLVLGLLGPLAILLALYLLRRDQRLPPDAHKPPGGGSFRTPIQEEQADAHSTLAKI

T2: human OX40-his (human, UniProt P43489 29-216)
T2 construct: Bought soluble protein
T2 sequence (looked up): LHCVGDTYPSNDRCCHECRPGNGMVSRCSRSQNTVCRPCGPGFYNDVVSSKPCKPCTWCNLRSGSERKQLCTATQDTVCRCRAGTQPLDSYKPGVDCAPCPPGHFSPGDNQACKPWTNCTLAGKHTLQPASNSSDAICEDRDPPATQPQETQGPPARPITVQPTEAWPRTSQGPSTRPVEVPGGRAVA

T3: GITR expressed on cell surface (CHO cells overexpressing GITR) (Homo sapiens (Human), UniProt Q9Y5U5 26-241)
T3 construct: also called GITR on cell surface
T3 sequence: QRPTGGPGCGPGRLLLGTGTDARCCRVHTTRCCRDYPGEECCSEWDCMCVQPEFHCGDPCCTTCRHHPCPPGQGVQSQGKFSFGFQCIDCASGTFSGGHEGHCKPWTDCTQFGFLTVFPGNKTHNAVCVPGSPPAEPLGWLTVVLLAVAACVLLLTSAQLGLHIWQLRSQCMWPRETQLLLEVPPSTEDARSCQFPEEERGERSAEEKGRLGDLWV

T4: human VEGF165 (human, UniProt P15692-4 27-191)
T4 construct: Bought protein
T4 sequence (looked up): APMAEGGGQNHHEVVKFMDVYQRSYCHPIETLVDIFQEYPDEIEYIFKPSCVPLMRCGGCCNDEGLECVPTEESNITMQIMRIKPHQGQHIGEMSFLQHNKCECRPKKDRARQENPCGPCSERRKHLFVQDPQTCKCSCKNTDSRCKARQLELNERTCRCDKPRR

T5: human GITR-His (human, UniProt Q9Y5U5 26-161)
T5 construct: Bought soluble protein; also called GIR-H5228-1MG
T5 sequence (looked up): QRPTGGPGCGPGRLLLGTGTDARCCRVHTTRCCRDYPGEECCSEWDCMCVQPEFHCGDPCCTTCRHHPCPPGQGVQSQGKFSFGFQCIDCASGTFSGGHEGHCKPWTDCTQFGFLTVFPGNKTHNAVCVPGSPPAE


Tests used:
[1] = molecular target: T1, human OX40 expressed on the surface of …; assay: FACS on CHO-OX40 cells, PE anti-human Fc
[2] = molecular target: T6, human PD-L1 expressed on the surface of cells (CHO cells overexpressing human PD-L1) (human, UniProt Q9NZQ7); assay: FACS on CHO-PD-L1 cells, PE anti-human Fc
T6 construct: whole, on cells; also called CHO-PD-L1 cells; CHO cells overexpressing PD-L1

human OX40-his = molecular target: T2, human OX40-his; assay: ForteBio Octet BLI, antibody on AHC tip, human OX40-His 100 nM in solution, monovalent
Procedure: (§1) A ForteBio affinity assay was performed according to the method reported in the literature (Estep, P, et al., High throughput solution Based measurement of antibody-antigen affinity and epitope binning MAbs, 2013, 5(2): p. 270-278). Briefly, the AHC sensor (Pall, Catalog No.: 1506091) was immersed in a SD buffer (PBS 1×, BSA 0.1%, Tween 20 0.05%) and equilibrated at room temperature, half an hour before the experiment. […] The anti-human IgG Fc biosensor AHC was immersed in each well containing the antibody solution, and immersed at room temperature for 600 s to load the samples. The sensor was then washed in the SD buffer until it returned to the baseline, and then immersed in a well containing 100 μL of the antigen solution to monitor the binding of the antibody to the antigen. The sensor was then transferred to a well containing 100 μL of the SD buffer to monitor the antibody dissociation. The rotation speed was 400 rpm and the temperature was 30° C. The background-corrected association and dissociation curves were fitted by the Octet analysis software (ForteBio) to generate the binding rate constant (kₒₙ) and dissociation rate constant (kdis), which are then used to calculate the equilibrium dissociation constant (KD).

human PD-L1-his = molecular target: T7, human PD-L1-his (human, UniProt Q9NZQ7 part only); assay: ForteBio Octet BLI, antibody on AHC tip, human PD-L1-His 100 nM in solution, monovalent
T7 construct: Bought soluble protein
Procedure: as §1

[3] = molecular target: T6, human PD-L1 expressed on the surface of …; assay: FACS cell-bridging assay: antibody titrated on stained CHO-PD-L1 cells, washed, then stained CHO-OX40 cells added; readout is % double positive (cross-linked) cells, which needs binding to both PD-L1 and OX40
[4] = molecular target: T3, GITR expressed on cell surface (CHO …); assay: FACS on CHO cells overexpressing GITR
human VEGF165 = molecular target: T4, human VEGF165; assay: ForteBio Octet BLI, antibody on AHC tip, human VEGF165 50 nM in solution
Procedure: as §1

human GITR-His = molecular target: T5, human GITR-His; assay: ForteBio Octet BLI, antibody on AHC tip, human GITR-His 50 nM in solution, monovalent
Procedure: as §1

Chain of human PD-L1-his (Q9NZQ7 19-238 limits assumed): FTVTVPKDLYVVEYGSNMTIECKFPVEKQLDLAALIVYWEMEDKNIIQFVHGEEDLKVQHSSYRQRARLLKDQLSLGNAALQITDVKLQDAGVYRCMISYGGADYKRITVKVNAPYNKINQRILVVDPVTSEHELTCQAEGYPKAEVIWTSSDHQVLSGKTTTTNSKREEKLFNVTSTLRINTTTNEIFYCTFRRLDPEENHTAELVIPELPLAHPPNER

EC50 [1] | EC50 [2] | Kd (human OX40-his) | koff (human OX40-his) | kon (human OX40-his) | Kd (human PD-L1-his) | koff (human PD-L1-his) | kon (human PD-L1-his) | EC50 (read off the curve) [3] | EC50 [4] | Kd (human VEGF165) | koff (human VEGF165) | kon (human VEGF165) | Kd (human GITR-His) | koff (human GITR-His) | kon (human GITR-His) | Binder
3.19 nM | 2.65 nM | 60.7 nM | 0.0133 s⁻¹ | 220000 M⁻¹ s⁻¹ | 13.1 nM | 0.00423 s⁻¹ | 322000 M⁻¹ s⁻¹ | ~1 nM |  |  |  |  |  |  |  | anti-OX40/PD-L1 bispecific antibody Bi-119-112LC (bispecific antibody, the VHH stands between CH1 and Fc) light: DIQMTQSPSSLSASVGDRVTITCQASQDISNYLNWYQQKPGKAPKLLIYDASNLETGVPSRFSGSGSGTDFTFTISSLQPEDIATYYCQQSDHYPTFGGGTKVEIKRTVAAPSVFIFPPSDEQLKSGTASVVCLLNNFYPREAKVQWKVDNALQSGNSQESVTEQDSKDSTYSLSSTLTLSKADYEKHKVYACEVTHQGLSSPVTKSFNRGEC heavy: QVQLVESGGGVVQPGRSLRLSCAASGFTFSSYGMHWVRQAPGKGLEWVAVISYDGSNKYYADSVKGRFTISRDNSKNTLYLQMNSLRAEDTAVYYCARGRPWYSETGTSAFDIWGQGTMVTVSSASTKGPSVFPLAPSSKSTSGGTAALGCLVKDYFPEPVTVSWNSGALTSGVHTFPAVLQSSGLYSLSSVVTVPSSSLGTQTYICNVNHKPSNTKVDKKAEPKSCDKQVQLQESGGGLVQPGGSLRLSCAASAYTISRNSMGWFRQAPGKGLEGVAAIESDGSTSYSDSVKGRFTISLDNSKNTLYLEMNSLRAEDTAVYYCAAPKVGLGPRTALGHLAFMTLPALNYWGQGTLVTVSS[… human IgG1 Fc …]
 |  |  |  |  |  |  |  |  | 2.99 nM | 1.08 nM | 0.000135 s⁻¹ | 124000 M⁻¹ s⁻¹ | 2.39 nM | 0.000629 s⁻¹ | 263000 M⁻¹ s⁻¹ | anti-VEGF/GITR bispecific antibody Bi-2-50 (bispecific antibody) light: DIQMTQSPSSLSASVGDRVTITCSASQDISNYLNWYQQKPGKAPKVLIYFTSSLHSGVPSRFSGSGSGTDFTLTISSLQPEDFATYYCQQYSTVPWTFGQGTKVEIKRTVAAPSVFIFPPSDEQLKSGTASVVCLLNNFYPREAKVQWKVDNALQSGNSQESVTEQDSKDSTYSLSSTLTLSKADYEKHKVYACEVTHQGLSSPVTKSFNRGEC heavy: EVQLVESGGGLVQPGGSLRLSCAASGYTFTNYGMNWVRQAPGKGLEWVGWINTYTGEPTYAADFKRRFTFSLDTSKSTAYLQMNSLRAEDTAVYYCAKYPHYYGSSHWYFDVWGQGTLVTVSSASTKGPSVFPLAPSSKSTSGGTAALGCLVKDYFPEPVTVSWNSGALTSGVHTFPAVLQSSGLYSLSSVVTVPSSSLGTQTYICNVNHKPSNTKVDKKVEPKSCDKGGGGSGGGGSQVQLQESGGGLVQPGGSLRLSCAASGFAFGSSHMSWVRRAPGKGLEWVSTIHSGGGFGDYANSVQGRFTISRDVAKNTLYLQMNSLKPEDTAIYYCALATDWRKPPGQGTQVTVSS[… human IgG1 Fc …]
 |  |  |  |  |  |  |  |  | 3.17 nM | 0.77 nM | 0.000115 s⁻¹ | 149000 M⁻¹ s⁻¹ | 2.31 nM | 0.000585 s⁻¹ | 254000 M⁻¹ s⁻¹ | anti-VEGF/GITR bispecific antibody Bi-2-51 (bispecific antibody) light: DIQMTQSPSSLSASVGDRVTITCSASQDISNYLNWYQQKPGKAPKVLIYFTSSLHSGVPSRFSGSGSGTDFTLTISSLQPEDFATYYCQQYSTVPWTFGQGTKVEIKRTVAAPSVFIFPPSDEQLKSGTASVVCLLNNFYPREAKVQWKVDNALQSGNSQESVTEQDSKDSTYSLSSTLTLSKADYEKHKVYACEVTHQGLSSPVTKSFNRGEC heavy: EVQLVESGGGLVQPGGSLRLSCAASGYTFTNYGMNWVRQAPGKGLEWVGWINTYTGEPTYAADFKRRFTFSLDTSKSTAYLQMNSLRAEDTAVYYCAKYPHYYGSSHWYFDVWGQGTLVTVSSASTKGPSVFPLAPSSKSTSGGTAALGCLVKDYFPEPVTVSWNSGALTSGVHTFPAVLQSSGLYSLSSVVTVPSSSLGTQTYICNVNHKPSNTKVDKKVEPKSCDKQVQLQESGGGLVQPGGSLRLSCAASGFAFGSSHMSWVRRAPGKGLEWVSTIHSGGGFGDYANSVQGRFTISRDVAKNTLYLQMNSLKPEDTAIYYCALATDWRKPPGQGTQVTVSS[… human IgG1 Fc …]

Reference: patent US20220041702A1 (Innovent, published 2022)
